Measured values as given in the supplement of paper PMC10126150.
Values marked as one replicate rest on one cluster of the flow cell; about a third of the high ones do not repeat.

System: ATP
Assay: switch fluorescence ratio, 500 uM ATP over buffer (Cy3 cluster intensity, sum of 5 cycles each) (fold (ratio)); higher = stronger signal-on switching upon ATP binding; sequences stand for … in TCGTCGGCAGCGTCAGATGTGTATAAGAGACAGTTTTTTTTTTTTTTTTTTTTTTTTT…TC
Details: aptamer strand: ATP DNA aptamer (quencher-CACCTGGGGGAGTATTGCGGAGGAAGG + anchor), 100 nM annealed; ATP concentration: 500 uM; one replicate
Procedure, shortened: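 The quencher-labelled ATP aptamer, at 100 nM, was annealed to Cy3-labelled switching-strand clusters on a modified Illumina MiSeq flow-cell. The clusters were imaged in selection buffer, then after 15 min with 500 uM ATP at 22 °C, and this buffer/ATP cycle ran five times with NaOH stripping and re-annealing between runs. Per-cluster fluorescence ratios, summed target-cycle over summed buffer-cycle Cy3 intensity, were averaged per switch-domain sequence. Clusters outside 100-1000 RFU were excluded.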
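Further: ATP exposure 15 min at 22 °C before imaging.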

Sequence | switch fluorescence ratio
GAAAAAGCCT | 1.37
GCTAGGTTAT | 0.985
GTGATTCACA | 1.01
GGATCAAAGC | 1.04
ACTTGGTCCG | 1.07
TGATACCCAT | 1.04
AGCATGAATA | 1.01
GGGCTATCGA | 0.982
CCTAAAATC | 2.01
GCGTTTGATC | 0.995
GTCGGAAGGT | 0.962
GACGCGGGCA | 1.03
TCTCGATGTT | 1.01
TGTGGATTGC | 1
TTTCGCATCA | 5.5
GTTCTCCGGA | 1.02
GGGGTTAGAT | 1
TGATTTCTGT | 1.01
AAAGCTGTCG | 1.05
GTTCCGGCGC | 0.992
TCCATGGTCT | 0.987
TAGTTCGTTA | 1.01
TCAGTTTAAG | 1

Sequence | switch fluorescence ratio
AACCTATTTA | 0.973
GCGCTGTGGG | 1.03
CCCGGTAGCA | 1.25
GGCAATAGTG | 1.17
GATCCGCAGT | 7.59
TAGTGGCA | 0.944
GCTTTAAACT | 0.953
TAGCATAACT | 1.23
CGTCATTAGT | 1.04
TCCTCGGTTT | 1.14
CCGTACGGTG | 1.05
TTTCCTATC | 0.997
AGTGAAGATT | 0.994
ACGGGTAT | 1.3
AAAAATGACC | 1.07
GTCGTTGGAT | 1.03
GACGGAAGTG | 0.966
ATTTGGGTG | 1.09
GAATTGTAGC | 0.958
TCAATCGTTT | 1.02
AACTTTTCTC | 1.13
TAATTCCAAT | 0.983
GTTGGCATG | 1.01

Sequence | switch fluorescence ratio
AATGGTAGAC | 1.01
TGACTATAGG | 1.07
GGCTCTGG | 1.04
AGTATTAATA | 1.01
ACTAGTTTCC | 0.996
GCAACGGGTA | 1
TCATTAGCTG | 1.01
AGGAATATTG | 1.02
CTCAGCTAAG | 1.33
TATCGGGTT | 0.97
CGTTATCTGT | 1.03
ACTCCTATAA | 1.34
TTATTTGAGG | 0.973
TGTAGTCATA | 1.01
GATATTTAAC | 1.07
CGTCATTCCA | 0.979
AATGCTGGGC | 0.976
CCATTGGGCT | 1.05
TTTGCTCTGT | 0.998
CTTGTTAATT | 0.989
TGCTGAGCTG | 0.89
GGAAAAGATT | 1.02
GAGCAAAGGA | 1.02

Sequence | switch fluorescence ratio
AGCAGTTTC | 1.09
CCAGATCGTA | 1.01
AAATGGATAC | 1.04
GATATCGACC | 1.07
GCCCACATTC | 1.05
ATAGTTTGGT | 1.02
AATGGTATC | 0.966
AGCCATTCCT | 1.18
AGATCATGTA | 0.988
AACTCGTCGA | 1.04
TTGCGCCAAG | 1.04
CGGGTTTTCT | 0.998
TGAAAGGCAG | 1.03
CTTAATATCA | 1.03
AACGGGTA | 0.968
ACGGAGGGTC | 1.07
CACGACTCGA | 1.11
CTAATCTTGA | 1.01
ATGTTAACC | 0.951
ACAACAGTAT | 1.03
GGTCACCTAT | 0.962
AGAAAACGAC | 0.998
TACGGGGGGC | 1.03

Sequence | switch fluorescence ratio
TCAATGCGCT | 1.01
TCCCTATTCA | 1.02
ATACTGAATC | 1.03
AAGTCGGCGG | 0.991
GAGGAACCAT | 1.03
AGTATTAACG | 1.02
ATATTTGACC | 0.966
TCATGCGGCT | 0.999
CTGATCCGAG | 1.11
AATACGC | 1.04
GGATCCCTCG | 1.06
CGTCTCGGAG | 0.959
CATCAGTCCG | 0.848
AGGGTCCTTG | 1.07
TGTCGAAGCG | 0.922
ACATCCTGAT | 1.02
CAATTGTCAA | 1
GAAAGAAAAT | 1.03
AGCAAAGGTG | 2.02
AACCGGAGTC | 1.57
AGAGCCAGGG | 1
GTAAATAATT | 1
CAAATGTTTT | 0.995

Sequence | switch fluorescence ratio
TACTAGAAGC | 1.02
CAACGTTATG | 1.04
GTGTTCGTTC | 1.01
TGAGTAGTTT | 0.971
ACAGAGGGCC | 0.973
GTATGTGATG | 0.957
ATGGAGGATG | 0.995
CAGCGTACGA | 1.08
TCACACCATA | 1.13
TCGCATACCT | 2.49
TGGGGTGTAA | 1
CATGGCCAGT | 0.997
CAGGATCTCG | 1.02
AGGAGCCAGC | 0.991
GCTCTCGACG | 1.01
CTGTTAATGA | 1
TCTTAGGTAA | 1.02
TTTCCTCTAT | 1.6
TTACAGTGTA | 0.969
TGTAACTTGA | 0.995
GGGTGTGGCT | 0.964
AAGATGGAAC | 1.03
GCAATTGGG | 1.11

Sequence | switch fluorescence ratio
CATTTATCGT | 1
CGGCGAAGGT | 1.01
ATTATAAGAA | 0.979
AGTCAGCCAA | 1.02
CTGGTCAGC | 0.969
TACGGGATCG | 0.995
GAGGGTCGGT | 0.994
TCGGACACTC | 1.09
GATCGTGCTT | 0.975
ACTCGTTGCG | 1.17
TAACGGCTGT | 0.935
CTTTATCTTA | 0.984
ATTCTTGTCC | 1.03
TACCGTCTCC | 1.32
AGGGACTTGC | 0.975
CACTTGTATA | 1.01
TCACCGACTG | 1.1
TTATGGGGCC | 1.03
AGACCCAACT | 1.06
